The target of assay [1] is T1, TDM1 (THREE DIVISION MUTANT1), yeast two-hybrid fusion (Arabidopsis thaliana) (UniProt Q9SUC3).
T1 sequence: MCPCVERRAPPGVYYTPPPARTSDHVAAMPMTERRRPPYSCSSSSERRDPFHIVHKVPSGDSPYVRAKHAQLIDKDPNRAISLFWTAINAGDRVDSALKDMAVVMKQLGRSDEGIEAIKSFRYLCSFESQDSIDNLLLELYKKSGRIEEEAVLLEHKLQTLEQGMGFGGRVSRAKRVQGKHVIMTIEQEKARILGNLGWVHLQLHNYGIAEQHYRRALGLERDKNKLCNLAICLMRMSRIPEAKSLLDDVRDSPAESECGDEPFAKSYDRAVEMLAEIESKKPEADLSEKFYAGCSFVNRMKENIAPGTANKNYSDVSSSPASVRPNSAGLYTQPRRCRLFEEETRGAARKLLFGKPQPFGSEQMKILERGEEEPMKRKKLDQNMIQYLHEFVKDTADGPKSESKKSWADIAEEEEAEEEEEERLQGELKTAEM
As to the kind of experiment: two-hybrid; bait fused with the GAL4 DNA binding domain (pDEST32), prey fused with the GAL4 activation domain (pDEST22); mating of yeast strains AH109 and Y187; growth on -His (weak interaction) or -His -Ade (strong interaction); three replicates.

Assay [2] concerns the target T2, CDC20.1, yeast two-hybrid fusion (UniProt Q9SZA4).
T2 sequence: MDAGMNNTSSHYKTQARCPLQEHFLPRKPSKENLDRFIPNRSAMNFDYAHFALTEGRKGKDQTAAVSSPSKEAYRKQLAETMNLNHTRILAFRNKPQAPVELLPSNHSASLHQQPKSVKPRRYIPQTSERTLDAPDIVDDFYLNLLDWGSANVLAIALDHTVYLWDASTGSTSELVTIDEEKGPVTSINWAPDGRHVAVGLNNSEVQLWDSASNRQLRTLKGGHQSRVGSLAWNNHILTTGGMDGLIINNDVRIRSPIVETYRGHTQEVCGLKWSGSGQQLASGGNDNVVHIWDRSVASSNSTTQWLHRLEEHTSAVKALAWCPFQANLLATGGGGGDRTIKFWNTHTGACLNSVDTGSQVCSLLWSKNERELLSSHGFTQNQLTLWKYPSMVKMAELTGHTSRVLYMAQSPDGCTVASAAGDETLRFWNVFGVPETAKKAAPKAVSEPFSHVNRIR
The description is as above.

The target of assay [3] is TDM1-P17L, yeast two-hybrid fusion (Arabidopsis thaliana) (UniProt Q9SUC3). The description is as above.
The target of assay [4] is T3, CDC27b (HOBBIT/APC3b), yeast two-hybrid fusion (UniProt Q8LGU6).
T3 sequence: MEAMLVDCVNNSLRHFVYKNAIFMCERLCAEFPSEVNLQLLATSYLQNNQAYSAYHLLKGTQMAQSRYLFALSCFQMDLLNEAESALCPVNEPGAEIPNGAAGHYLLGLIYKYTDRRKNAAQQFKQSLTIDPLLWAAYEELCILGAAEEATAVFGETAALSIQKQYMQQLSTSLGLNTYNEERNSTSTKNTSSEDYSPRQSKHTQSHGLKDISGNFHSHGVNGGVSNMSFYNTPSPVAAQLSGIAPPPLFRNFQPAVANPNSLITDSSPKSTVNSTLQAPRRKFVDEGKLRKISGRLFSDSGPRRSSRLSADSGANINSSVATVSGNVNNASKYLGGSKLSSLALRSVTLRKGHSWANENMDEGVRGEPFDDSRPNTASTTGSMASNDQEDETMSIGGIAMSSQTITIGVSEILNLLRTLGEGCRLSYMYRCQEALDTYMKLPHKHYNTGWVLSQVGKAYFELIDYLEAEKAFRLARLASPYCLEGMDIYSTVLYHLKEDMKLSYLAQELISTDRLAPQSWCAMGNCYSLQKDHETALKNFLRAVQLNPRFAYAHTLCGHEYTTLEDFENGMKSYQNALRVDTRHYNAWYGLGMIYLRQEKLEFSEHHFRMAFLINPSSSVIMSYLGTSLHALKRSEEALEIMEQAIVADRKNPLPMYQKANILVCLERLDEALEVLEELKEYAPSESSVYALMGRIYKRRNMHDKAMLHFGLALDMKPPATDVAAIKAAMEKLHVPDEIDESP
The description is as above.

The target of assay [5] is T4, CDC20.1, split-YFP fusion (YFP^C::CDC20.1) (UniProt Q9SZA4).
T4 sequence: T2 sequence
Kind of assay: split reporter; BiFC with N-terminal YFP^N and YFP^C fusions co-infiltrated in N. benthamiana leaves, leaf epidermal cells scored after 3 or 4 days by confocal microscopy.

Assay [6] concerns the target TDM1, split-YFP fusion (YFP^N::TDM1 and YFP^C::TDM1) (Arabidopsis thaliana) (UniProt Q9SUC3). Described as above.

Numbering of substitutions follows the chain as printed. In names and notes the source's numbering stands. Results are given in words; binding and its absence hold for the method and conditions named. For some of these results: In cells and extracts the contact can be indirect. Some binding calls cover weakened binding; strength is not graded here. Tags and fused reporters may be left off the sequences shown.

B1: TDM1-P17L, yeast two-hybrid fusion (protein, UniProt Q9SUC3 1-434)
chain: T1 sequence with P17L
On to B1, for which the binding result in assay [1], in assay [2], in assay [3] and in assay [4] was “binds” throughout.

B2: TDM1, split-YFP fusion (YFP^N::TDM1 and YFP^C::TDM1) (protein, UniProt Q9SUC3 1-434)
chain: T1 sequence
Turning to B2, the binding result in assay [5] and in assay [6] was “binds” in each case.

B3: TDM1^1-294, yeast two-hybrid fusion (domain or fragment, UniProt Q9SUC3 1-294)
chain: MCPCVERRAPPGVYYTPPPARTSDHVAAMPMTERRRPPYSCSSSSERRDPFHIVHKVPSGDSPYVRAKHAQLIDKDPNRAISLFWTAINAGDRVDSALKDMAVVMKQLGRSDEGIEAIKSFRYLCSFESQDSIDNLLLELYKKSGRIEEEAVLLEHKLQTLEQGMGFGGRVSRAKRVQGKHVIMTIEQEKARILGNLGWVHLQLHNYGIAEQHYRRALGLERDKNKLCNLAICLMRMSRIPEAKSLLDDVRDSPAESECGDEPFAKSYDRAVEMLAEIESKKPEADLSEKFYAG
For the molecule B3, the binding entry in assay [1] is on record as “binds”.

(Values after article PMC4752240.)
